Results from the supplement of paper PMC6531468.
Some of the results follow. Values come from read counts of a selection and are noisy. Scores sum up all selected molecules that hold the word; the word was not tested alone.

Experiments:
Test in all cases: 6-mer SELEX enrichment z-score vs GST control; IMP3 is the RNA-binding protein IGF2BP3; higher = more enriched by binding
[1] = tested on: IMP3 KH1-4; details: construct: KH1-4 (164-579); SELEX round: R4
Description: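 SELEX-seq with GST-tagged IMP3 KH1-4 (Pro164-Lys579) and an N40 RNA pool, round 4. 6-mer z-score of sequence-tag enrichment normalised to the corresponding GST SELEX round; RNA k-mers written as DNA (T for U).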

[2] = tested on: IMP3 RRM1-2; details: construct: RRM1-2 (1-163); SELEX round: R2
Description: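 SELEX-seq with GST-tagged IMP3 RRM1-2 (Met1-Asn163) and an N40 RNA pool, round 2. 6-mer enrichment z-score normalised to GST SELEX. RNA written as DNA (T = U).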

[3] = molecular target: IMP3 full-length (UniProt O00425); details: construct: FL IMP3 (1-579); SELEX round: R4
Description: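 SELEX-seq with GST-tagged full-length IMP3 and an N40 RNA pool, round 4. Each 6-mer is scored as an enrichment z-score of sequence tags containing it, normalised to the matching GST SELEX round. RNA written as DNA (T = U).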

[4] = tested on: IMP3 KH1-2; details: construct: KH1-2 (164-376); SELEX round: R4
Description: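 SELEX-seq with GST-tagged IMP3 KH1-2 (Pro164-Phe376) and an N40 RNA pool, round 4 (stringent 300/600 mM KCl washes). 6-mer z-score of sequence-tag enrichment normalised to the corresponding GST SELEX round; RNA k-mers written as DNA (T for U).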

[5] = tested on: IMP3 KH3-4; details: construct: KH3-4 (377-579); SELEX round: R4
Description: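 SELEX-seq with GST-tagged IMP3 KH3-4 (Pro377-Lys579) and an N40 RNA pool, round 4. 6-mer z-score of sequence-tag enrichment normalised to the corresponding GST SELEX round; RNA k-mers written as DNA (T for U).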

Sequence of IMP3 KH3-4 (chain, as listed by the source): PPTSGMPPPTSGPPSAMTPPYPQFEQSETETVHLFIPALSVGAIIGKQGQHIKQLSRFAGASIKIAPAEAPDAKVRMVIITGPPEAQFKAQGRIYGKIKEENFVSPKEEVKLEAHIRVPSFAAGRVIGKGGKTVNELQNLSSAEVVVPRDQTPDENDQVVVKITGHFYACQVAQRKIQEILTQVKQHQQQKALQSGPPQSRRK
Sequence of IMP3 RRM1-2 (chain, as listed by the source): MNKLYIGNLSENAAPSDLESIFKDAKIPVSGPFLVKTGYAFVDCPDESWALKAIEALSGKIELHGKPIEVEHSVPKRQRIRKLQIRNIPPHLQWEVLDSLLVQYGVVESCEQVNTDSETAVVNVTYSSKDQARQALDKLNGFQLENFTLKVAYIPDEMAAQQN
Sequence of UniProt O00425 (O00425 whole entry): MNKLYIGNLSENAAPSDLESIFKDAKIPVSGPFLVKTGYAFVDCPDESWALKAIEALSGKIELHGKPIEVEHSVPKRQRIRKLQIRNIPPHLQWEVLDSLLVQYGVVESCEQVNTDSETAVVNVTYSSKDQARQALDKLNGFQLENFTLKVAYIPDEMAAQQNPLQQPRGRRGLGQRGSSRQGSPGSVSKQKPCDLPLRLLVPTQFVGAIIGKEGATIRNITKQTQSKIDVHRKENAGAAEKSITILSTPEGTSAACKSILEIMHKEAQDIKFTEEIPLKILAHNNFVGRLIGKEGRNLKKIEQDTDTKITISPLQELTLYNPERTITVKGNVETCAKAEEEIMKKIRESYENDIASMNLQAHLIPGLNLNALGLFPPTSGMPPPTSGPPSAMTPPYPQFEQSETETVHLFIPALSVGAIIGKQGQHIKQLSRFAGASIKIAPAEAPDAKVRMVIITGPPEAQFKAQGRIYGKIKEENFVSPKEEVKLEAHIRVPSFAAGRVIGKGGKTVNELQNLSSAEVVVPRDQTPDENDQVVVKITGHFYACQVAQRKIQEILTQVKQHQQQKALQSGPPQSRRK
Sequence of IMP3 KH1-4 (chain, as listed by the source): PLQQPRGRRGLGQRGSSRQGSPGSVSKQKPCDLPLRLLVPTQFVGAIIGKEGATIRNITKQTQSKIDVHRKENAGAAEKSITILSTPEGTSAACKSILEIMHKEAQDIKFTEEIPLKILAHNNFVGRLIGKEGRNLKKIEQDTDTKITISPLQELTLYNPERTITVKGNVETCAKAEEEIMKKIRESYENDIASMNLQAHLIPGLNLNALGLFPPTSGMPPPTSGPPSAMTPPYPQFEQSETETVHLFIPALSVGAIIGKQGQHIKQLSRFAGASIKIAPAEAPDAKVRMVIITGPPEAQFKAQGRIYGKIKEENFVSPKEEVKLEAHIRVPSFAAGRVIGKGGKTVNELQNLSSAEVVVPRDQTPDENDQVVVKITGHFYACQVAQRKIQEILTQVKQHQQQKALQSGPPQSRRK
Sequence of IMP3 KH1-2 (chain, as listed by the source): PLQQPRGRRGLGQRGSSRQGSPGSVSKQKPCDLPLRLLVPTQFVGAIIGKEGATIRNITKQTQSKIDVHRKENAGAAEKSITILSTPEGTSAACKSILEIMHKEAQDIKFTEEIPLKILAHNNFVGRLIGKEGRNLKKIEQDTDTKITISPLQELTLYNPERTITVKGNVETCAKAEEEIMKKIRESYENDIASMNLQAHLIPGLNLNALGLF

Sequence	6-mer SELEX enrichment z-score [1]	6-mer SELEX enrichment z-score [2]	6-mer SELEX enrichment z-score [3]	6-mer SELEX enrichment z-score [4]	6-mer SELEX enrichment z-score [5]
CAGTCA	1.4	0.984	1.65	0.915	0.638
AAGCCG	-0.804	-0.965	-0.372	-0.687	-0.842
TCAACG	-0.917	0.13	0.093	-1.04	-1.04
GCTACA	0.542	0.648	0.804	0.712	0.454
TAGTGT	-0.24	0.267	-0.237	-0.225	-0.048
AAGTAC	-0.693	-0.45	-0.558	-0.809	-0.669
CTTATT	1.07	0.316	0.304	0.925	1.2
ATGCGT	-1.39	0.103	-0.732	-1.25	-0.946
TTGTGC	-0.27	0.264	-0.316	-0.344	-0.272
TGCCCG	-1.49	-0.329	-0.853	-1.2	-1.56
GCAGTG	0.287	0.168	0.378	0.218	0.164
CATTTT	0.954	0.77	0.878	1.09	1.15
TTGCTC	-0.024	0.334	0.027	0.085	-0.003
ATTGGC	0.344	0.286	0.42	0.209	0.358
GGACAA	0.538	-0.602	0.039	0.296	0.489
TTCCCT	0.316	0.017	-0.424	0.171	-0.134
CATCAG	0.482	2.73	2.62	0.402	0.079
GCCATT	0.649	0.293	0.63	0.553	0.52
GATCGG	0.663	-0.071	0.904	0.344	0.697
AGTCTC	-0.276	0.613	0.586	-0.133	-0.128

Sequence	6-mer SELEX enrichment z-score [1]	6-mer SELEX enrichment z-score [2]	6-mer SELEX enrichment z-score [3]	6-mer SELEX enrichment z-score [4]	6-mer SELEX enrichment z-score [5]
GACCCC	-0.478	-1.06	-0.975	-0.302	-1.41
GGTGAT	0.426	0.09	0.198	0.361	0.576
GCAGTA	0.154	0.157	0.424	0.115	0.166
GCTCTG	-0.118	0.161	0.191	-0.027	-0.042
TGTAAA	0.212	-0.945	-0.816	0.011	0.695
CCGAGG	-0.88	-0.704	-0.104	-0.694	-0.864
AGGCGT	-0.984	0.28	0.041	-0.802	-0.635
CTCTAT	0.462	0.234	0.071	0.466	0.464
CGGATG	0.137	-0.404	0.064	0.085	0.202
GCATGG	0.425	0.537	0.964	0.328	0.253
TGTAGT	-0.757	0.29	-0.736	-0.728	-0.55
GTATGC	-0.082	0.081	-0.115	-0.162	-0.065
ATCAAG	-0.454	1.04	0.364	-0.542	-0.316
AATGTT	0.464	-0.299	-0.324	0.118	0.545
CCAACC	-1.96	-0.43	-1.78	-1.72	-2.81
ACTGGG	-0.121	0.022	0.182	0.02	-0.021
TAAACC	-1.05	-1.48	-1.85	-0.785	-1.09
TGTACG	-0.058	-0.225	-0.153	-0.22	-0.123
GCTGCA	1.1	0.219	0.93	0.927	0.567
GGGCGT	-1.74	0.309	-0.621	-1.46	-1.37

Sequence	6-mer SELEX enrichment z-score [1]	6-mer SELEX enrichment z-score [2]	6-mer SELEX enrichment z-score [3]	6-mer SELEX enrichment z-score [4]	6-mer SELEX enrichment z-score [5]
GGGCAG	0.475	0.097	0.989	0.728	0.561
TCCGAG	-1.77	-0.278	-0.431	-1.54	-1.52
CCATCT	0.08	0.328	0.239	0.005	-0.385
AGTTCC	-0.209	0.03	-0.296	-0.255	-0.406
CTAGGA	-0.163	-0.135	-0.303	-0.228	-0.136
AGACGG	0.128	-0.554	0.152	0.032	0.043
CGGACG	-1.18	-0.717	-0.42	-1.02	-1.06
TCACCC	-0.863	-0.2	-0.872	-0.932	-1.51
TTTTAA	1.18	-0.057	0.047	1.15	2.1
GCAAAT	0.341	-0.12	0.181	0.297	0.583
GCGTAG	-3.54	-0.002	-1.49	-3.09	-2.99
ACCACA	0.118	2.44	0.493	0.473	-0.773
TTCCCG	-0.544	-0.186	-0.647	-0.517	-0.826
CGGACT	-0.338	-0.266	-0.252	-0.461	-0.353
CAAATT	0.506	-0.235	-0.13	0.629	0.794
CATTCC	1.14	1.01	1.04	1.08	0.138
TCTGGG	-0.274	0.459	0.124	-0.111	-0.051
CGCCAT	0.667	0.221	0.853	0.67	0.251
CATCTA	0.815	0.655	0.782	0.438	0.313
ACGGGC	-1.77	-0.039	0.249	-1.51	-1.37
